Assay results from PubChem BioAssay AID1347073 (National Center for Advancing Translational Sciences (NCATS), 2019).
The whole screen tested about 45,000 compounds, of which about 200 (0.44%) were called active. Not shown: some 7% with an inconclusive outcome. The call rests on the fitted dose curve; in most records, active means well fitted activation curve with a large enough effect; inconclusive means small, poorly fitted or top-dose-only effect; inactive means no such curve, though single readings can be large or run the other way. The list shows a part of the results.

Assay: qHTS of TDP-43 Inhibitors: NCGC Sytravon Library Screen; further: 0% is about no effect; nearly all actives have a fitted effect of over 55% in size
Conditions: yeast TDP-43 toxicity rescue, BacTiter-Glo growth, 24 h; series mostly up to 46.1 µM; growth rescue (activation): at the top concentration
Procedure, shortened: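 TDP-43-expressing yeast, pregrown in raffinose, seeded at OD600 0.02 in galactose medium with compound for 24 hr at 30 deg C. Growth read by BacTiter-Glo luminescence, so rescue of toxicity appears as activation.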

| SMILES | growth rescue (activation) |
| --- | --- |
| O=C(O)CCC(=O)NNC(=O)COc1cccc(Cl)c1 | inactive: -4.89% |
| NC(=O)NC(=O)CN1C(=O)NC(c2ccccc2)(c2ccccc2)C1=O | inactive: 3.59% |
| Cc1c(NC(=O)C(C)Oc2ccc(Br)cc2)c(=O)n(-c2ccccc2)n1C (stereo not given) | inactive: 3.51% |
| CSc1nsc(SC)c1C(=O)NCCNS(=O)(=O)c1ccc(C)cc1 | inactive: -5.09% |
| O=C(N/N=C/c1c[nH]c2ccccc12)C1COc2ccccc2O1 (stereo not given) | inactive: 18.4% |
| Cc1ccc(CNC(=O)/C=C/c2ccc(S(=O)(=O)N3CCOCC3)cc2)cc1 | inactive: 11% |
| C=CCn1c(CNC(=O)c2ccco2)nnc1SCC(=O)c1ccc(F)cc1 | inactive: 5.1% |
| CCc1c(C)c2cc(Cl)c(O)c(CN3CCCC3)c2oc1=O | inactive: 13% |
| CCN1CCN(C(=O)c2cc3cc(Cl)ccc3[nH]2)CC1 | inactive: -3.51% |
| CCNC(=O)C1(C)CCN(Cc2ccc(C(F)(F)F)cc2)C1 (stereo not given) | inactive: 0.971% |
| CN(C)CCNc1c2c(nc3nnnn13)CCCC2 | inactive: 8.07% |
| Cc1ccc(NC(=O)Cn2ccc(=O)[nH]c2=O)cc1 | inactive: 4.41% |
| Cc1ccc(NC(=O)C2(C)CCN2CCc2ccccc2)cc1O (stereo not given) | inactive: 3.2% |
| COCCN1Cc2cccc(C(=O)Nc3ccc(C)cc3)c2C1=O | inactive: 27% |
| Cc1nc(SCC(=O)Nc2ccc3[nH]c(=O)[nH]c3c2)nc(C)c1C | inactive: -22.3% |
| CCOc1ccc(C(=O)CCC(=O)NNC(=O)CCN2CCN(c3ccccc3)CC2)cc1 | inactive: 17.8% |
| CC1=CC2=NC(=O)/C(=C\c3ccc(OC(=O)c4ccco4)cc3)C(=N)N2O1 | inactive: -2.65% |
| O=C(/C=C/c1ccco1)Nc1ccc(F)cc1 | inactive: 25.4% |
| CC(C)NC(=O)NC(=O)COC(=O)c1ccccc1O | inactive: 26.4% |
| COc1cc(C(=O)N2CCC(C(N)=O)CC2)ccc1OCc1c(C)noc1C | inactive: -1.14% |
| O=C(CSCC(=O)NC1CCCC1)Nc1ccccc1 | inactive: 2.65% |
| O=P(COCCOCCOCP(=O)(c1ccccc1)c1ccccc1)(c1ccccc1)c1ccccc1 | inactive: 7.78% |
| O=S(=O)(NC1CCCCC1)c1cccc2nsnc12 | inactive: -8.52% |
| CC(NC(=O)COC(=O)c1cc(=O)[nH]c2ccccc12)c1ccccc1 (stereo not given) | inactive: -3.18% |
| Cc1cccc(C(=O)NC2CC3CCCC(C2)N3C(=O)Nc2ccccc2)c1 (stereo not given) | inactive: -8.23% |
| COc1cccc(OC)c1C(=O)Nc1ccc(N2CCN(C(=O)c3cccs3)CC2)cc1 | inactive: 5.51% |
| CCc1cccc(C)c1NC(=O)C1CC=CCC1C(=O)O (stereo not given) | inactive: 2.19% |

| SMILES | growth rescue (activation) |
| --- | --- |
| Cc1ccc(NC(=O)CN(C)C(=O)CSc2ccccc2F)cc1 | inactive: 22.7% |
| O=c1c2sccc2n(Cc2cc(=O)n3ccccc3n2)c(=O)n1-c1cc(F)ccc1F | inactive: 3.75% |
| CC(=O)Nc1ccc(S(=O)(=O)N(C)c2ccc(OCC(=O)OCC(=O)Nc3ccc(OC(F)F)cc3)cc2)cc1 | inactive: -7.58% |
| Oc1ccc(/C=N/N2CCN(C3c4ccccc4-c4ccccc43)CC2)cc1 | inactive: 5.41% |
| Cc1cc(C)cc(OCC(=O)OCC(=O)NC2CC2)c1 | inactive: 6.29% |
| COc1cccc(CNc2nc(NC(C)C)nc3ccsc23)c1 | inactive: -0.448% |
| O=C(N/N=C/c1c[nH]c2ccccc12)c1cccs1 | inactive: 19.2% |
| CC(=O)COc1ncn(-c2ccccc2)n1 | inactive: 16.7% |
| Cc1cccc(Oc2nc3ccccn3c(=O)c2/C=C(\C#N)C(=O)NC2CCS(=O)(=O)C2)c1C (stereo not given) | inactive: -14.3% |
| COc1cccc(NC(=O)N2CCC(NC(=O)C3CCCCC3)CC2)c1 | inactive: 0.912% |
| O=C(COc1ccccc1[N+](=O)[O-])Nc1ccc(CN2CCOCC2)cc1 | inactive: -1.52% |
| Cc1ccc(C(=O)Nc2ccccc2C(=O)N2CCCC2)cc1[N+](=O)[O-] | inactive: 11.7% |
| COc1ccc2[nH]c(O)c(N=O)c2c1 | inactive: 0.567% |
| CC(C)CCNC(=O)CN(C(=O)CCC(=O)Nc1nccs1)c1ccc2c(c1)OCCO2 | inactive: 6.16% |
| COc1cc(C)c(NC(=O)c2cccc(S(=O)(=O)N3CCCC3)c2)cc1OC | inactive: -9.5% |
| C[C@H](NC(=O)COc1ccccc1)C(=O)OCC(=O)c1cc2ccccc2o1 | inactive: -3.26% |
| CSc1ccccc1NC(=O)CN(C)C(=O)CCc1c[nH]c2ccccc12 | inactive: -5.58% |
| CS(=O)(=O)c1ccc(-n2nnc3ccccc32)c([N+](=O)[O-])c1 | inactive: -14.9% |
| O=C(Cc1ccccc1)Nc1ccc(NC(=O)c2cccnc2)cc1 | inactive: -3.33% |
| Cc1ccc(S(=O)(=O)NCC(=O)N(CC(=O)NC(C)(C)C)Cc2ccc3c(c2)OCO3)cc1 | inactive: 5.64% |
| CNc1cc(-c2ccc(C(=O)OC)cc2)ncn1 | inactive: -19.6% |
| Cc1nc(SCC(=O)N2CCCCC2)c2c(C)c(C)sc2n1 | inactive: 7.24% |
| COc1cccc(-c2cc3nc(NCc4ccccc4OC)n(C)c(=O)c3s2)c1 | inactive: 8.02% |
| CC(=O)c1c(C)[nH]c(C(=O)COC(=O)c2cc(S(=O)(=O)N(C)c3ccccc3)ccc2Cl)c1C | inactive: -14.8% |
| CCc1ccc(NC(=O)COC(=O)CCCC2=NS(=O)(=O)c3ccccc3N2)cc1 | inactive: 8.51% |
| CCOC(=O)CC1=C(C(=O)OCC)C(c2cccs2)C(C#N)=C(N)O1 (stereo not given) | inactive: -0.694% |
| COc1ccc(/C=C(/NC(=O)c2ccco2)C(=O)N2CCc3ccccc32)cc1OC | inactive: 0.259% |

| SMILES | growth rescue (activation) |
| --- | --- |
| COc1ccc(CCn2nnnc2CN2CCN(C(=O)c3ccco3)CC2)cc1OC | inactive: 8.96% |
| COc1ccc(F)cc1-c1cc(C(=O)NCc2ccc(F)cc2)[nH]n1 | inactive: 27.2% |
| COCCn1cnc2c1c(=O)n(CC(=O)OCC(=O)NCC(F)(F)F)c(=O)n2Cc1ccccc1 | inactive: -22.6% |
| COc1ccc(CCNc2ncccc2C#N)cc1OC | inactive: 11.7% |
| Cc1ccc(C)c(CN2CCC(CNC(=O)Nc3ccc(C)c(C)c3)CC2)c1 | inactive: 6.53% |
| COc1cc2c(cc1OC)C1CC(=O)C(CC(C)C)CN1CC2 (stereo not given) | inactive: 11% |
| CSCCC(N=C(NS(=O)(=O)c1ccc(Br)cc1)c1ccccc1)C(=O)O (stereo not given) | inactive: 3.43% |
| O=C1C=C(Nc2ccc(O)cc2)C(=O)c2ccccc21 | inactive: -3.39% |
| O=C(CCCOc1ccccc1)OCn1nnc2ccccc2c1=O | inactive: 17.8% |
| CCOc1ccc(NC(=S)N2CCC(C(O)(c3ccccc3)c3ccccc3)CC2)cc1 | inactive: -13% |
| CC(=O)Nc1cccc(-c2ccnc3c2CC(C)(C(=O)Nc2ccc(C(C)C)cc2)O3)c1 (stereo not given) | inactive: 5.38% |
| CCCCNC(=S)Nc1cc([N+](=O)[O-])ccc1C | inactive: 11% |
| FC(F)Sc1ccc(NC(=S)NC(c2ccccc2)c2ccccc2)cc1 | inactive: 8.48% |
| Cc1ccc(N(C(=O)CNC(=O)c2ccco2)C(C(=O)NC2CCCC2)c2ccncc2)cc1 (stereo not given) | inactive: 1.58% |
| COC(=O)c1c[nH]n2c(=O)c(C(C)C)c(C)nc12 | inactive: 8.96% |
| CCOc1ccc(C(=O)Nc2cccc(C(C)=O)c2)cc1[N+](=O)[O-] | inactive: 5.39% |
| COc1ccc(OC)c(C2/C(=C(/O)c3cnn(-c4ccccc4)c3C)C(=O)C(=O)N2CCN(C)C)c1 (stereo not given) | inactive: -0.125% |
| COCCNC(=O)CN(Cc1ccccc1)C(=O)CCC(=O)Nc1nccs1 | inactive: 2.78% |
| CCOc1ccccc1NC(=O)COC(=O)c1c(CC)noc1C | inactive: -2.82% |
| COCCNC(=O)CSc1nc2sccc2c(=O)n1-c1ccccc1 | inactive: 1.63% |
| O=C(N/N=C/C=C/c1ccco1)c1ccccc1Cl | inactive: 16.2% |
| O=C(O)CNC(=O)c1ccc(NC(=O)/C(=C/c2cccc([N+](=O)[O-])c2)NC(=O)c2ccco2)cc1 | inactive: 3.39% |
| CCCCOC(=O)CN1C(=O)c2ccc(C(=O)OCCCC)cc2C1=O | inactive: 21.4% |
| COc1cc(NC(=O)c2cccnc2)c(OC)cc1NC(=O)c1ccc(Br)cc1 | inactive: 10.8% |
| CCOc1ccccc1N(CC(=O)NCc1ccco1)C(=O)CCC(=O)Nc1nccs1 | inactive: 7.62% |
| O=C(c1cccc(Br)c1)N1CCN(S(=O)(=O)N2CCCCCC2)CC1 | inactive: 25.9% |
| CC1(C(=O)NS(=O)(=O)Cc2cccc(Cl)c2)CCN1C(=O)Cc1ccc(Cl)cc1Cl (stereo not given) | inactive: 6.35% |

| SMILES | growth rescue (activation) |
| --- | --- |
| CCOc1ccc(C(=O)c2ccccc2C(=O)O)cc1OCC | inactive: 11.7% |
| CCOc1ccc(NCc2cccn2-c2nnc(N3CCC(C(=O)NCCCN4CC(C)CC(C)C4)CC3)s2)cc1 (stereo not given) | inactive: -5.01% |
| CN(C)CC(C)(C)CNCc1cc(=O)oc2ccc3ccccc3c12 | inactive: -13.5% |
| Cc1cccc(NC(=O)Nc2nnc(-c3ccccc3)o2)c1 | inactive: 10.8% |
| O=C(NN1C(=O)C2C3c4ccccc4C(c4ccccc43)[C@@H]2C1=O)c1ccccc1 (stereo not given in full) | inactive: -12.8% |
| Cc1cccc(NC(=O)CN2C(=O)C(c3ccc(F)cc3)=NC23CCCCCC3)c1 | inactive: 14.8% |
| COc1ccccc1C(=O)Nc1ccc(N2CCN(C(C)=O)CC2)cc1 | inactive: 3.41% |
| Cc1c(F)cccc1NS(=O)(=O)c1ccc(OCCNS(C)(=O)=O)cc1 | inactive: -11.4% |
| Cc1ccnc(NC(=O)c2cc3cc(F)ccc3s2)c1 | inactive: 12.9% |
| Cc1c(C)c2c(OCC(=O)N[C@@H](CC(C)C)C(=O)O)cc3c(c2oc1=O)CCC(C)(C)O3 | inactive: 1.41% |
| COC(=O)c1nc(NNC(=O)c2ccccc2)sc1-c1ccccc1 | inactive: 6.61% |
| Cc1cc(C(=O)OCC(=O)NCc2ccccc2)c2ccccc2n1 | inactive: 9.44% |
| O=C(CNc1cccc2ccccc12)N/N=C/c1ccc(OC(=O)/C=C/c2ccco2)cc1 | inactive: 5.68% |
| O=C(Nc1cccc(-c2nnc(-c3ccco3)o2)c1)c1ccccc1 | inactive: -5.7% |
| Cn1cc(CN2CCC(C(O)c3cccs3)CC2)c(-c2ccccc2F)n1 (stereo not given) | inactive: 32.2% |
| O=C(NCc1cccc(Cl)c1)c1cc2c(s1)-c1ccccc1SC2 | inactive: 16.4% |
| Cc1ccc(C(C)(C)C)cc1S(=O)(=O)Nc1cccc(S(=O)(=O)NC2=NCCC2)c1 | inactive: 11.1% |
| CC(NC(=O)c1ccccc1)c1nnc(SCC(=O)NC2=NCCS2)n1C (stereo not given) | inactive: -15.2% |
| Cc1ccnn1-c1ccc(C(=O)OCC(=O)Nc2ccc(F)cc2)cc1 | inactive: -4.51% |
| Cc1ccc(C(=O)NC2CC(C)(C)NC(C)(C)C2)cc1 | inactive: 7.06% |
| COC(=O)c1ccc(NC(=O)COc2ccc3c(c2)OCO3)cc1 | inactive: 7.96% |
| CCOc1ccccc1NC(=O)[C@@H](NC(=O)c1cccc(S(=O)(=O)N2CCOCC2)c1)C(C)C | inactive: 9.13% |
| Cc1ccc2c(c1)C(c1ccc([N+](=O)[O-])cc1)=NNC(c1ccc(Br)cc1)=N2 | inactive: 23% |
| O=C(NCc1ccc(Cl)cc1)C1CC(O)CN1S(=O)(=O)c1ccc(Cl)cc1 (stereo not given) | inactive: -6.91% |
